This is a selection; strong and weak results do not stand in their true shares. The list includes weakly bound sequences.
Assays:
Assay in all cases: protein-binding microarray (PBM)
Conditions in all cases: PBM: ~300 nM protein, 6 mM HEPES pH 7.8, 80 mM KCl, 0.5 mM EDTA, 0.5 mM EGTA, 6% glycerol, 35 ng/ul poly-dIdC, 1% milk, 1 h, room temperature; Ap Aiptasia and Nv Nematostella (sea anemones) / Co Capsaspora / Aq Amphimedon (sponge) / Dm Drosophila / Hu human; RHD is the Rel homology domain; high values mean tight binding; most listed sequences are background and not binding sites; double strand, one strand shown
[1] = molecular target: T1, GST-Ap-NF-kB RHD (UniProt A0A913YAJ5)
T1 sequence: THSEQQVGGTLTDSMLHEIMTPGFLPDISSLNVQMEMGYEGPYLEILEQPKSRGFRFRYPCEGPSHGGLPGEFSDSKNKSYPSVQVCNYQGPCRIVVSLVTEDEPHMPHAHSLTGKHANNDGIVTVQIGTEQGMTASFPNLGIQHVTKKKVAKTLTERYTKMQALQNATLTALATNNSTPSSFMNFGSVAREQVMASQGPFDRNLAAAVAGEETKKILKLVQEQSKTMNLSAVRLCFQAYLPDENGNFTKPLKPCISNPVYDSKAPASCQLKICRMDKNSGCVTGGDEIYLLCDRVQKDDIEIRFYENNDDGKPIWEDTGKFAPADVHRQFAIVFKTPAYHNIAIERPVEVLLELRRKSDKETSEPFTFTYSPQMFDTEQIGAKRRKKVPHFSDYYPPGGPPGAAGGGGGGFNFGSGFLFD

[2] = molecular target: T2, GST-Nv-NF-kB (Cys allele) (UniProt E5G601)
T2 sequence: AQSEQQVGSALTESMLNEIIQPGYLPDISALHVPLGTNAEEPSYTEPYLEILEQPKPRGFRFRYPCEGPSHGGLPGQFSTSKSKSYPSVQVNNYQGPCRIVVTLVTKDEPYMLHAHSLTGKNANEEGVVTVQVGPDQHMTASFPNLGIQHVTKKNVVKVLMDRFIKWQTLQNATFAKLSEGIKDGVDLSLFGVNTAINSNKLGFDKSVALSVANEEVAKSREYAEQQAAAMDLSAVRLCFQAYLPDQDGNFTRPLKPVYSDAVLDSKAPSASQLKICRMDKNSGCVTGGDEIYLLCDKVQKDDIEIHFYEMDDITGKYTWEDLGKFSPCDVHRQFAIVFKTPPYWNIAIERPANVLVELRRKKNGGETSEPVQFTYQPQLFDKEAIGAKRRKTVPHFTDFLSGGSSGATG

[3] = molecular target: T3, GST-Co-NF-kB (UniProt F1ARL5)
T3 sequence: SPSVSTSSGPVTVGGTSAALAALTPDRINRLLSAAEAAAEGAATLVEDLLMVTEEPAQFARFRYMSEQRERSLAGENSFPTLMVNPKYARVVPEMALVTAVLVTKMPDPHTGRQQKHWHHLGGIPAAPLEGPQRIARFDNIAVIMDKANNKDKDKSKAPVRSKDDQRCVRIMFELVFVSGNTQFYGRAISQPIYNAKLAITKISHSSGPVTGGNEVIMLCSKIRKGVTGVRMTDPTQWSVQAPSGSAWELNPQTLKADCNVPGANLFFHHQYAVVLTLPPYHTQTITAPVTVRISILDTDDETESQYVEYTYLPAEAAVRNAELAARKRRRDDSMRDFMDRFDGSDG

[4] = molecular target: T4, GST-Dm-Relish (UniProt Q94527)
T4 sequence: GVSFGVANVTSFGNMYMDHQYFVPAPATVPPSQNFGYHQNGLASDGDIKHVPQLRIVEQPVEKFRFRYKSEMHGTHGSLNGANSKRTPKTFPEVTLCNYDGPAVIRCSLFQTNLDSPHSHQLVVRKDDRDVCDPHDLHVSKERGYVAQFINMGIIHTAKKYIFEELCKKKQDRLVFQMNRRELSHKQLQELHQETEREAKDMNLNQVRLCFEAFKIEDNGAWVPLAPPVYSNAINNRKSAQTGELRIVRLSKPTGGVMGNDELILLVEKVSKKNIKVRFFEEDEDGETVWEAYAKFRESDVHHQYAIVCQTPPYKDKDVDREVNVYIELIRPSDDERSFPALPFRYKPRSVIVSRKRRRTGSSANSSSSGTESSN

[5] = molecular target: T5, GST-Aq-NF-kB (UniProt A9Y5G7)
T5 sequence: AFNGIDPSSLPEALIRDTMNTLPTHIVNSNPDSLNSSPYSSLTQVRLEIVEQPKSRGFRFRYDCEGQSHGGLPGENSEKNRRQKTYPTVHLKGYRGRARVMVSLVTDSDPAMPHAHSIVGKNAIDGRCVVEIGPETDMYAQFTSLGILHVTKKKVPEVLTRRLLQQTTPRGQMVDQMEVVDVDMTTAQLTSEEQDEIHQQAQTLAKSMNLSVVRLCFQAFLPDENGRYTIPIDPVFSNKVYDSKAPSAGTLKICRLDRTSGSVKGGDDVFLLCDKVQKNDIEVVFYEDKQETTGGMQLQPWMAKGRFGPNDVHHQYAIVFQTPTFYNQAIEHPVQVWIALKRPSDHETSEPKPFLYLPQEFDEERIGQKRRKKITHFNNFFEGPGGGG

Sequence	binding signal [1] [z-score]	binding signal [2] [z-score]	binding signal [3] [z-score]	binding signal [4] [z-score]	binding signal [5] [z-score]
CCGATTAACATCACGCAGTATTGTGATGTTAATCGGGTCTTGATTCGCTTGACGCTGCTG	-0.186	0.105	-0.15	0.688	-0.321
CCGATTAACATCAGTACATCATGTGATGTTAATCGGGTCTTGATTCGCTTGACGCTGCTG	-0.105	-0.867	-0.53	0.534	-0.29
CCGATTAACATCACCCGGAATTCTGATGTTAATCGGGTCTTGATTCGCTTGACGCTGCTG	0.819	0.00622	0.645	0.921	0.878
CCGATTAACATCAAGTGCCACGTTGATGTTAATCGGGTCTTGATTCGCTTGACGCTGCTG	-0.414	0.126	-0.412	-0.398	-0.519
CCGATTAACATCACGGAATATCCTGATGTTAATCGGGTCTTGATTCGCTTGACGCTGCTG	0.0302	-0.38	0.221	0.154	1.48
CCGATTAACATCAATAGCTAGTATGATGTTAATCGGGTCTTGATTCGCTTGACGCTGCTG	-0.716	0.0025	0.298	-0.614	-0.402
CCGATTAACATCACACACTCAGATGATGTTAATCGGGTCTTGATTCGCTTGACGCTGCTG	0.00105	0.589	0.971	0.475	-0.103
CCGATTAACATCAGCTGTTGCAATGATGTTAATCGGGTCTTGATTCGCTTGACGCTGCTG	-0.528	-0.354	-0.774	-0.436	-0.429
CCGATTAACATCAGACTGCTAGGTGATGTTAATCGGGTCTTGATTCGCTTGACGCTGCTG	0.0376	-0.219	-0.181	-0.0236	0.184
CCGATTAACATCAGAAGCGGTAGTGATGTTAATCGGGTCTTGATTCGCTTGACGCTGCTG	0.129	0.275	0.83	0.0916	-0.147
CCGATTAACATCAGCGTTTGGACTGATGTTAATCGGGTCTTGATTCGCTTGACGCTGCTG	-0.418	-0.275	-0.202	-0.484	-0.379
CCGATTAACATCAGGAAATGGGATGATGTTAATCGGGTCTTGATTCGCTTGACGCTGCTG	1.33	-0.0611	0.814	0.295	0.515
CCGATTAACATCAACGACCATCTTGATGTTAATCGGGTCTTGATTCGCTTGACGCTGCTG	-0.0485	-0.58	-0.512	-1.14	-0.615
CCGATTAACATCACTTAGTACGGTGATGTTAATCGGGTCTTGATTCGCTTGACGCTGCTG	0.0649	-0.35	0.763	1.1	0.24
CCGATTAACATCATTATAACTTATGATGTTAATCGGGTCTTGATTCGCTTGACGCTGCTG	-0.577	-0.0812	-0.332	-0.425	-0.118
CCGATTAACATCATTTCAGCCCTTGATGTTAATCGGGTCTTGATTCGCTTGACGCTGCTG	-0.39	-0.187	0.441	-0.561	-0.221
CCGATTAACATCACAAAAAATTTTGATGTTAATCGGGTCTTGATTCGCTTGACGCTGCTG	-0.394	-0.0942	-0.376	2.12	0.715
CCGATTAACATCACGTTCGTTTCTGATGTTAATCGGGTCTTGATTCGCTTGACGCTGCTG	-0.441	-0.221	-0.236	-0.264	-0.36
CCGATTAACATCATTGGCGGTCATGATGTTAATCGGGTCTTGATTCGCTTGACGCTGCTG	-0.0652	0.0868	-0.444	-0.783	-0.151
CCGATTAACATCATTCCGGTATGTGATGTTAATCGGGTCTTGATTCGCTTGACGCTGCTG	0.291	-0.432	-0.263	0.0822	0.594
CCGATTAACATCAGGATTCCCCCTGATGTTAATCGGGTCTTGATTCGCTTGACGCTGCTG	11.3	10.5	–	10.2	8.67
CCGATTAACATCAGGACTTCCCCTGATGTTAATCGGGTCTTGATTCGCTTGACGCTGCTG	10.1	10.5	–	9.98	10.4
CCGATTAACATCACGGGGAATCCTGATGTTAATCGGGTCTTGATTCGCTTGACGCTGCTG	9.87	9.94	–	10	7.48
CCGATTAACATCAGAAGATCCCCTGATGTTAATCGGGTCTTGATTCGCTTGACGCTGCTG	7.16	6.92	–	7.44	6.44
CCGATTAACATCAGGGTGTAGTTTGATGTTAATCGGGTCTTGATTCGCTTGACGCTGCTG	0.0653	0.134	–	1.07	0.692
CCGATTAACATCAAAAATCCCCTTGATGTTAATCGGGTCTTGATTCGCTTGACGCTGCTG	10.4	12.3	–	10.1	8.57
CCGATTAACATCAGGAATTGTCCTGATGTTAATCGGGTCTTGATTCGCTTGACGCTGCTG	-0.624	0.532	-0.145	-0.0845	0.814
CCGATTAACATCACACCCGCAACTGATGTTAATCGGGTCTTGATTCGCTTGACGCTGCTG	0.21	-0.118	–	0.649	0.474
CCGATTAACATCAGGGAGCGGTTTGATGTTAATCGGGTCTTGATTCGCTTGACGCTGCTG	0.895	0.133	–	-0.0301	0.986
